Here are results for 153 variants from a collection of fitness landscapes (doi:10.1126/science.1257360).

This is one part of the list.

Sequences and labels used below:
B1: PhoQ; a variant is named by its letters at X, in order, P23837 (parent)
chain: MKKLLRLFFPLSLRVRFLLATAAVVLVLSLAYGMVALIGYSVSFDKTTFRLLRGESNLFYTLAKWENNKLHVELPENIDKQSPTMTLIYDENGQLLWAQRDVPWLMKMIQPDWLKSNGFHEIEADVNDTSLLLSGDHSIQQQLQEVREDDDDAEMTHSVAVNVYPATSRMPKLTIVVVDTIPVELKSSYMVWSWFIYVLSANLLLVIPLLWVAAWWSLRPIEALAKEVRELEEHNRELLNPATTRELTSLVRNLNRLLKSERERYDKYRTTLTDLTHSLKTPLXXLQXXLRSLRSEKMSVSDAEPVMLEQISRISQQIGYYLHRASMRGGTLLSRELHPVAPLLDNLTSALNKVYQRKGVNISLDISPEISFVGEQNDFVEVMGNVLDNACKYCLEFVEISARQTDEHLYIVVEDDGPGIPLSKREVIFDRGQRVDTLRPGQGVGLAVAREITEQYEGKIVAGESMLGGARMEVIFGRQHSAPKDE

Variants of B1 are the subject of this assay. Description: enrichment ratio after two sorts for PhoP signalling (ratio (wild type AVST 3.29)); higher = more functional. The settings on record: with PhoP (E. coli).
Regarding DRVW, the enrichment ratio was not above 0.25.
For RMGQ, the enrichment ratio is not above 0.25.
WYGY: the enrichment ratio was not above 0.25.
For AWWD the value was not above 0.25; for KFKR, not above 0.25.
For NGKQ, the enrichment ratio is not above 0.25.
On to SRSR, for which the enrichment ratio was not above 0.25.
Consider NVMS, for which the enrichment ratio was not above 0.25.
For SPYM the value was not above 0.25.
In the case of LYPL it was not above 0.25; in that of GAMP, not above 0.25.
In the case of QGLG it was 5.07; in that of HLGR, not above 0.25.
On to HPYY, for which the enrichment ratio is not above 0.25.
Turning to TIFK, the enrichment ratio is not above 0.25.
In the case of FQNI, the enrichment ratio is not above 0.25.
For YFRN the value was not above 0.25; for KRHF, not above 0.25; for YTSH, 1.07.
For HHYC the value was not above 0.25; for IGIQ, not above 0.25; for VMHL, not above 0.25.
In the case of AFLN it was not above 0.25; in that of FVTN, not above 0.25.
FHSN: the enrichment ratio is not above 0.25.
For YQSY, the enrichment ratio was not above 0.25.
For QQLI the value was 1.28; for KHFL, not above 0.25.
In the case of RREG, the enrichment ratio is not above 0.25.
For RMCV the value was not above 0.25.
In the case of DIYF it was not above 0.25; in that of RQIR, not above 0.25; in that of SVEG, not above 0.25.
For CHRG, the enrichment ratio was not above 0.25.
With GQSH, the enrichment ratio was not above 0.25.
For AHGM the value was not above 0.25; for NFNR, not above 0.25; for NQHK, not above 0.25.
In the case of FWTN it was not above 0.25.
In the case of SHFH it was not above 0.25.
On to IIYY, for which the enrichment ratio is not above 0.25.
On to EYLR, for which the enrichment ratio was not above 0.25.
For SNPF the value was not above 0.25; for VPYI, not above 0.25; for MVPL, not above 0.25.
In the case of PGVD it was not above 0.25; in that of TTCP, not above 0.25.
On to VSTL, for which the enrichment ratio was determined as 2.35.
For RIAI the value was not above 0.25; for GSDH, not above 0.25.
NHRP: the enrichment ratio is not above 0.25.
For ELGY the value was not above 0.25; for VGTG, not above 0.25; for TQHN, not above 0.25.
In the case of LNQI it was not above 0.25.
For the variant MYAC, the enrichment ratio is not above 0.25.
For IVFC the value was not above 0.25; for QMLQ, not above 0.25.
PMPW: the enrichment ratio was not above 0.25.
With TLMF, the enrichment ratio was not above 0.25.
Take TSNI: the enrichment ratio turned out to be 9.65.
For VHWP the value was not above 0.25.
For FFTS, the enrichment ratio was not above 0.25.
In the case of PIYC it was not above 0.25.
On to NNCS, for which the enrichment ratio was determined as 1.41.
Consider PFHS, for which the enrichment ratio is not above 0.25.
For DWIH the value was not above 0.25; for YKSI, not above 0.25; for IEGT, not above 0.25.
In the case of YYAP it was not above 0.25.
For GCGK the value was not above 0.25; for WETI, not above 0.25; for DPVE, not above 0.25.
Turning to RGWT, the enrichment ratio was not above 0.25.
As to LNFA, the enrichment ratio was not above 0.25.
For NIIM the value was not above 0.25.
In the case of QQCE it was not above 0.25.
For RADH the value was not above 0.25.
In the case of MYCF, the enrichment ratio is not above 0.25.
In the case of FYCF it was not above 0.25.
With RIYW, the enrichment ratio was not above 0.25.
Turning to HHPS, the enrichment ratio is not above 0.25.
In the case of WEPN it was not above 0.25; in that of TKME, 0.26.
In the case of WDSQ, the enrichment ratio is not above 0.25.
As to KIES, the enrichment ratio was not above 0.25.
With QRIW, the enrichment ratio was not above 0.25.
On to DALI, for which the enrichment ratio is not above 0.25.
In the case of LFWR it was not above 0.25; in that of VCTG, 0.404.
Take QRMV: the enrichment ratio was not above 0.25.
For TAWV the value was 12.8; for TRGL, not above 0.25; for MVKL, not above 0.25.
Regarding LAFT, the enrichment ratio was not above 0.25.
As for LEGH, the enrichment ratio is not above 0.25.
For HQIV the value was not above 0.25.
For FVLW the value was not above 0.25.
For VHDF, the enrichment ratio is not above 0.25.
In the case of DNYR, the enrichment ratio was not above 0.25.
In the case of KMLI it was not above 0.25; in that of NLKL, not above 0.25; in that of YYNF, not above 0.25.
For TDTL the value was 1.46.
For HQLH the value was not above 0.25; for KSPH, not above 0.25.
For the variant YVNS, the enrichment ratio was not above 0.25.
In the case of TNMM it was 7.6; in that of YRQQ, not above 0.25.
On to VPAK, for which the enrichment ratio was not above 0.25.
As for VCMS, the enrichment ratio was not above 0.25.
As for DDEF, the enrichment ratio was not above 0.25.
For FFCP the value was not above 0.25.
With VNTP, the enrichment ratio is not above 0.25.
In the case of NNCH it was not above 0.25; in that of MKLM, 7.36; in that of WQRQ, not above 0.25.
For the variant VWNE, the enrichment ratio was not above 0.25.
In the case of EHMR it was not above 0.25.
For REPA the value was not above 0.25.
In the case of GFGY it was not above 0.25; in that of WSRN, not above 0.25.
As to IQLK, the enrichment ratio is not above 0.25.
In the case of SCFE it was not above 0.25; in that of FDMN, not above 0.25; in that of KRCM, not above 0.25.
Regarding HMVS, the enrichment ratio was not above 0.25.
In the case of TVLP it was not above 0.25; in that of HHYW, not above 0.25; in that of SPTR, not above 0.25.
Regarding FAKW, the enrichment ratio was not above 0.25.
In the case of YPRS it was not above 0.25; in that of MYVL, not above 0.25.
For the variant YHNF, the enrichment ratio was not above 0.25.
For DFVD the value was not above 0.25; for RWYV, not above 0.25.
In the case of ENNV it was not above 0.25; in that of SYKD, not above 0.25; in that of YTNK, not above 0.25.
For VLEV the value was not above 0.25.
As to QTLA, the enrichment ratio was not above 0.25.
Turning to DYLW, the enrichment ratio was not above 0.25.
With RLYK, the enrichment ratio was not above 0.25.
In the case of GIEF it was not above 0.25; in that of RPAT, not above 0.25; in that of PMSW, not above 0.25.
In the case of MAYI, the enrichment ratio stood at 21.1.
Turning to WLSY, the enrichment ratio was not above 0.25.
Take IHIY: the enrichment ratio is not above 0.25.
Consider NEYC, for which the enrichment ratio was not above 0.25.
On to AWAY, for which the enrichment ratio is not above 0.25.
In the case of MMYA it was not above 0.25; in that of ANHI, not above 0.25.
